Assay results from the supplement of paper PMC6657886.
MIC of clinical N. gonorrhoeae isolates (2015-2017) by agar dilution on GC agar with 1% IsoVitaleX (ranges not stated); higher = less susceptible. No active / inactive call per row; the paper counts benzylpenicillin above 1 and ceftriaxone above 0.125 mg/L as resistant (EUCAST). The method is stated for benzylpenicillin and ceftriaxone and assumed for the other drugs. '<=' is inferred from pile-ups at the end values. Isolates are numbered anew.

Tests used:
Assay in all cases: Agar dilution on enriched GC agar; resistance determinants by microarray.
benzylpenicillin = compound: CC1(C)S[C@@H]2[C@H](NC(=O)Cc3ccccc3)C(=O)N2[C@H]1C(=O)O [benzylpenicillin]
tetracycline = compound: CN(C)[C@@H]1C(O)=C(C(N)=O)C(=O)[C@@]2(O)C(O)=C3C(=O)c4c(O)cccc4[C@@](C)(O)[C@H]3C[C@@H]12 [tetracycline]
ceftriaxone = compound: CO/N=C(\C(=O)N[C@@H]1C(=O)N2C(C(=O)O)=C(CSc3nc(=O)c(O)nn3C)CS[C@H]12)c1csc(N)n1 [ceftriaxone]
spectinomycin = compound: CN[C@@H]1[C@H](O)[C@H](NC)[C@H]2O[C@@]3(O)C(=O)C[C@@H](C)O[C@H]3O[C@@H]2[C@H]1O [spectinomycin]
azithromycin = compound: CC[C@H]1OC(=O)[C@H](C)[C@@H](O[C@H]2C[C@@](C)(OC)[C@@H](O)[C@H](C)O2)[C@H](C)[C@@H](O[C@@H]2O[C@H](C)C[C@H](N(C)C)[C@H]2O)[C@](C)(O)C[C@@H](C)CN(C)[C@H](C)[C@@H](O)[C@]1(C)O [azithromycin]

Test System | MIC (benzylpenicillin) | MIC (tetracycline) | MIC (ceftriaxone) | MIC (spectinomycin) | MIC (azithromycin)
Neisseria gonorrhoeae isolate 62 (blaTEM plasmid: no, gyrA: wild type, mtrR promoter: wild type, parC: wild type, penA: ins345Asp, ponA: wild type, porB: wild type, rpsJ: wild type, tetM plasmid: no) | 0.06 µg/mL | 0.12 µg/mL | 0.008 µg/mL | 16 µg/mL | 0.03 µg/mL
Neisseria gonorrhoeae isolate 365 (blaTEM plasmid: no, gyrA: wild type, mtrR promoter: wild type, parC: Arg87, Glu91, penA: ins345Asp, ponA: Pro421, porB: wild type, rpsJ: Met57, tetM plasmid: no) | 0.25 µg/mL | 1 µg/mL | 0.008 µg/mL | 16 µg/mL | 0.06 µg/mL
Neisseria gonorrhoeae isolate 11 (blaTEM plasmid: no, gyrA: wild type, mtrR promoter: wild type, parC: wild type, penA: wild type, ponA: wild type, porB: wild type, rpsJ: wild type, tetM plasmid: no) | ≤ 0.015 µg/mL | 0.25 µg/mL | ≤ 0.002 µg/mL | 32 µg/mL | 0.12 µg/mL
Neisseria gonorrhoeae isolate 430 (blaTEM plasmid: no, gyrA: Phe91, Asn95, mtrR promoter: -35delA, parC: Arg87, Glu91, penA: ins345Asp, ponA: Pro421, porB: wild type, rpsJ: Met57, tetM plasmid: no) | 0.5 µg/mL | 2 µg/mL | 0.008 µg/mL | 16 µg/mL | 0.5 µg/mL
Neisseria gonorrhoeae isolate 184 (blaTEM plasmid: no, gyrA: wild type, mtrR promoter: wild type, parC: wild type, penA: ins345Asp, ponA: wild type, porB: wild type, rpsJ: wild type, tetM plasmid: no) | 0.03 µg/mL | 0.06 µg/mL | 0.008 µg/mL | 16 µg/mL | 0.12 µg/mL
Neisseria gonorrhoeae isolate 427 (blaTEM plasmid: no, gyrA: wild type, mtrR promoter: wild type, parC: wild type, penA: wild type, ponA: wild type, porB: wild type, rpsJ: wild type, tetM plasmid: no) | ≤ 0.015 µg/mL | 0.25 µg/mL | ≤ 0.002 µg/mL | 32 µg/mL | 0.25 µg/mL
Neisseria gonorrhoeae isolate 198 (blaTEM plasmid: no, gyrA: wild type, mtrR promoter: wild type, parC: wild type, penA: wild type, ponA: wild type, porB: wild type, rpsJ: wild type, tetM plasmid: no) | ≤ 0.015 µg/mL | 0.12 µg/mL | ≤ 0.002 µg/mL | 16 µg/mL | 0.12 µg/mL
Neisseria gonorrhoeae isolate 238 (blaTEM plasmid: no, gyrA: Phe91, Asp95, mtrR promoter: wild type, parC: wild type, penA: ins345Asp, ponA: Pro421, porB: Asp120, Ala121, rpsJ: Met57, tetM plasmid: no) | 1 µg/mL | 1 µg/mL | 0.008 µg/mL | 16 µg/mL | 0.06 µg/mL
Neisseria gonorrhoeae isolate 26 (blaTEM plasmid: no, gyrA: wild type, mtrR promoter: wild type, parC: wild type, penA: ins345Asp, ponA: wild type, porB: wild type, rpsJ: wild type, tetM plasmid: no) | 0.12 µg/mL | 0.12 µg/mL | ≤ 0.002 µg/mL | 32 µg/mL | 0.015 µg/mL
Neisseria gonorrhoeae isolate 245 (blaTEM plasmid: no, gyrA: wild type, mtrR promoter: wild type, parC: wild type, penA: wild type, ponA: wild type, porB: wild type, rpsJ: wild type, tetM plasmid: no) | ≤ 0.015 µg/mL | 0.12 µg/mL | ≤ 0.002 µg/mL | 32 µg/mL | 0.03 µg/mL
Neisseria gonorrhoeae isolate 187 (blaTEM plasmid: no, gyrA: Phe91, Asn95, mtrR promoter: wild type, parC: Arg87, Glu91, penA: ins345Asp, ponA: Pro421, porB: Asp120, Ala121, rpsJ: Met57, tetM plasmid: no) | 0.12 µg/mL | 0.5 µg/mL | ≤ 0.002 µg/mL | 16 µg/mL | 0.12 µg/mL
Neisseria gonorrhoeae isolate 102 (blaTEM plasmid: no, gyrA: wild type, mtrR promoter: wild type, parC: wild type, penA: ins345Asp, ponA: wild type, porB: wild type, rpsJ: wild type, tetM plasmid: no) | ≤ 0.015 µg/mL | 0.25 µg/mL | ≤ 0.002 µg/mL | 32 µg/mL | 0.06 µg/mL
Neisseria gonorrhoeae isolate 92 (blaTEM plasmid: yes, gyrA: wild type, mtrR promoter: wild type, parC: wild type, penA: ins345Asp, ponA: Pro421, porB: Asp120, Ala121, rpsJ: Met57, tetM plasmid: yes) | 16 µg/mL | 32 µg/mL | 0.008 µg/mL | 16 µg/mL | 0.06 µg/mL
Neisseria gonorrhoeae isolate 112 (blaTEM plasmid: no, gyrA: wild type, mtrR promoter: wild type, parC: wild type, penA: ins345Asp, ponA: wild type, porB: wild type, rpsJ: wild type, tetM plasmid: no) | 0.03 µg/mL | 0.25 µg/mL | 0.008 µg/mL | 32 µg/mL | 0.06 µg/mL
Neisseria gonorrhoeae isolate 398 (blaTEM plasmid: no, gyrA: Phe91, Asn95, mtrR promoter: -35delA, parC: Arg87, Glu91, penA: ins345Asp, ponA: Pro421, porB: Lys 120, Asn 121, rpsJ: Met57, tetM plasmid: no) | 0.5 µg/mL | 2 µg/mL | 0.015 µg/mL | 8 µg/mL | 0.12 µg/mL
Neisseria gonorrhoeae isolate 261 (blaTEM plasmid: no, gyrA: Thr91, Gly95, mtrR promoter: wild type, parC: wild type, penA: ins345Asp, ponA: wild type, porB: wild type, rpsJ: Met57, tetM plasmid: no) | 0.06 µg/mL | 0.5 µg/mL | ≤ 0.002 µg/mL | 32 µg/mL | 0.03 µg/mL
Neisseria gonorrhoeae isolate 499 (blaTEM plasmid: no, gyrA: wild type, mtrR promoter: wild type, parC: wild type, penA: wild type, ponA: wild type, porB: wild type, rpsJ: wild type, tetM plasmid: no) | 0.12 µg/mL | 0.06 µg/mL | ≤ 0.002 µg/mL | 16 µg/mL | 0.12 µg/mL
Neisseria gonorrhoeae isolate 339 (blaTEM plasmid: no, gyrA: wild type, mtrR promoter: wild type, parC: wild type, penA: ins345Asp, ponA: wild type, porB: wild type, rpsJ: wild type, tetM plasmid: no) | 0.06 µg/mL | 0.06 µg/mL | 0.004 µg/mL | 8 µg/mL | 0.03 µg/mL
Neisseria gonorrhoeae isolate 332 (blaTEM plasmid: no, gyrA: wild type, mtrR promoter: wild type, parC: wild type, penA: wild type, ponA: wild type, porB: wild type, rpsJ: wild type, tetM plasmid: no) | ≤ 0.015 µg/mL | 0.06 µg/mL | ≤ 0.002 µg/mL | 16 µg/mL | 0.12 µg/mL
Neisseria gonorrhoeae isolate 326 (blaTEM plasmid: no, gyrA: wild type, mtrR promoter: wild type, parC: wild type, penA: wild type, ponA: wild type, porB: wild type, rpsJ: wild type, tetM plasmid: no) | 0.03 µg/mL | 0.5 µg/mL | 0.03 µg/mL | 64 µg/mL | 0.12 µg/mL
Neisseria gonorrhoeae isolate 64 (blaTEM plasmid: no, gyrA: wild type, mtrR promoter: wild type, parC: wild type, penA: ins345Asp, ponA: wild type, porB: Asp120, Ala121, rpsJ: Met57, tetM plasmid: no) | 0.25 µg/mL | 0.5 µg/mL | 0.004 µg/mL | 16 µg/mL | 0.06 µg/mL
Neisseria gonorrhoeae isolate 468 (blaTEM plasmid: no, gyrA: Phe91, Asn95, mtrR promoter: -35delA, parC: Ser87, Gly91, penA: ins345Asp, ponA: wild type, porB: Asn120, Asp 121, rpsJ: Met57, tetM plasmid: no) | 1 µg/mL | 2 µg/mL | 0.032 µg/mL | 32 µg/mL | 0.25 µg/mL
Neisseria gonorrhoeae isolate 276 (blaTEM plasmid: no, gyrA: Thr91, Gly95, mtrR promoter: wild type, parC: wild type, penA: ins345Asp, ponA: Pro421, porB: wild type, rpsJ: Met57, tetM plasmid: no) | 0.06 µg/mL | 0.5 µg/mL | ≤ 0.002 µg/mL | 16 µg/mL | 0.06 µg/mL
Neisseria gonorrhoeae isolate 9 (blaTEM plasmid: no, gyrA: wild type, mtrR promoter: wild type, parC: wild type, penA: wild type, ponA: wild type, porB: wild type, rpsJ: wild type, tetM plasmid: no) | 0.12 µg/mL | 1 µg/mL | 0.004 µg/mL | 16 µg/mL | 0.12 µg/mL
Neisseria gonorrhoeae isolate 298 (blaTEM plasmid: no, gyrA: Phe91, Asn 95, mtrR promoter: wild type, parC: Arg 87, Glu91, penA: ins345Asp, ponA: Pro421, porB: wild type, rpsJ: Met57, tetM plasmid: no) | 0.25 µg/mL | 1 µg/mL | ≤ 0.002 µg/mL | 32 µg/mL | 0.06 µg/mL
